The text below walks through data of PubChem BioAssay AID1745853 (National Center for Advancing Translational Sciences (NCATS), 2022).

The structures appear in SMILES notation. “And” between values parts separate entries of the source, which are not always exact repeats. Identical values can stand only once. The list shows a part of the results. The main result of the screen is listed elsewhere. These columns were measured beside it and carry no call.

What all share (assay): Primary Screen for Target Class Profiling of Small Molecule Inhibitors of Methyltransferases
In experiment [1] the target is Glycine N-methyltransferase (Homo sapiens) (UniProt Q14749). The following applies: purified enzyme, MTase-Glo SAH luminescence; measured here: GNMT inhibition; at 40 µM; stronger effect = lower value. The method in brief: (§1)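 Each enzyme was assayed with SAM and its substrate. SAH formation detected by MTase-Glo luminescence; single-point 40 uM screen[…].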

The target of experiment [2] is Guanidinoacetate N-methyltransferase (Homo sapiens) (UniProt Q14353). Particulars: purified enzyme, MTase-Glo SAH luminescence; measured here: GAMT inhibition; at 40 µM; stronger effect = lower value. The method, boiled down:
as §1

The target in experiment [3] is Histamine N-methyltransferase (Homo sapiens) (UniProt P50135). The following applies: purified enzyme, MTase-Glo SAH luminescence; measured here: HNMT inhibition; at 40 µM; stronger effect = lower value. The method in brief:
as §1

In experiment [4] the target is Nicotinamide N-methyltransferase (Homo sapiens) (UniProt P40261). Particulars: purified enzyme, MTase-Glo SAH luminescence; measured here: NNMT inhibition; at 40 µM; stronger effect = lower value. The method in brief: as §1
In experiment [5] the target is Phenylethanolamine N-methyltransferase (Homo sapiens) (UniProt P11086). Particulars: purified enzyme, MTase-Glo SAH luminescence; measured here: PNMT inhibition; at 40 µM; stronger effect = lower value. The method in brief: as §1
On the % scale 0 is the no-effect control and ±100 the full control effect.

As for `O=C(NCCc1nc2ccccc2s1)[C@H]1CNC[C@@H](C(=O)N2CCOCC2)C1`, the activity change, negative = inhibition is -7.76% in experiment [1]; -11.7% in experiment [2]; -2.53% in experiment [3]; -14.9% in experiment [4]; -11.5% in experiment [5].

`COc1ccc(-c2cc3n(n2)CC(C)(C(=O)NC2CCCCC2)N(Cc2ccccc2F)C3=O)cc1` (stereo not given): the activity change, negative = inhibition in experiment [1] amounted to 2.02%; in experiment [2], 3.46%; in experiment [3], 4.69%; in experiment [4], 9.26%; in experiment [5], 0.89%.

In the case of `O=C(Cn1c(=O)oc2cc(S(=O)(=O)N3CCCC3)ccc21)NCc1ccc(Cl)cc1`, the activity change, negative = inhibition in experiment [1] was -3.76%; in experiment [2], 0.783%; in experiment [3], 3.25%; in experiment [4], -10.8%; in experiment [5] it was -5.29%.

For `O=C(CCc1nnc2n(Cc3ccc(F)cc3)c(=O)c3ccccc3n12)Nc1ccccc1`, the activity change, negative = inhibition is -2.45% in experiment [1]; -1.67% in experiment [2]; -2.06% in experiment [3]; -11.5% in experiment [4]; -5.3% in experiment [5].

Regarding `CN(CC1CCOC1)C(=O)c1ccco1` (stereo not given), the activity change, negative = inhibition in experiment [1] was -4.45%; in experiment [2], -10.7%; in experiment [3], -4.01%; in experiment [4], -9.51%; in experiment [5], -9.29%.

Take `Clc1ccc(N2CCN(Cc3c[nH]c4ncccc34)CC2)cc1`: the activity change, negative = inhibition was -11.1% in experiment [1]; -1.11% in experiment [2]; -11.8% in experiment [3]; -15.4% in experiment [4]; -0.982% in experiment [5].

Turning to `C[C@@H]1CCNC(=O)c2cc3ccc(C(=O)Nc4nc5ccccc5n4CCCN(C)C)cc3n21`, the activity change, negative = inhibition in experiment [1] was -12%; in experiment [2], -10.6%; in experiment [3] it was -36.1%; in experiment [4], -29.4%; in experiment [5] it was -6.18%.

Consider `CCOc1ccccc1NC(=O)Cn1c(=O)oc2cc(S(=O)(=O)NCc3ccccc3)ccc21`, for which the activity change, negative = inhibition in experiment [1] was 3.8%; in experiment [2], 1.27%; in experiment [3], 1.86%; in experiment [4] it was -0.609%; in experiment [5] it was 1.03%.

Take `CCC/C=C/C(=O)O[C@H]1CC(C)(C)CC2[C@]13[C@H](O)O[C@@]21CCC2[C@@]4(C)CC[C@H](O[C@@H]5O[C@H](C(=O)O)[C@@H](O)[C@H](O[C@@H]6O[C@H](CO)[C@H](O)[C@H](O)[C@H]6O[C@@H]6O[C@@H](C)[C@H](O)[C@@H](O)[C@H]6O[C@@H]6OC[C@](O)(CO)[C@H]6O)[C@H]5O[C@@H]5O[C@H](CO)[C@H](O)[C@H](O)[C@H]5O)C(C)(C)C4CC[C@@]2(C)[C@]1(C)C[C@H]3OC(C)=O` (stereo not given in full): the activity change, negative = inhibition in experiment [1] was 2.92%; in experiment [2] it was 4.29%; in experiment [3], 2.43%; in experiment [4], -5.66%; in experiment [5] it was 5.55%.

As to `CC1CC(C)CN(S(=O)(=O)c2ccc3c(c2)oc(=O)n3CC(=O)Nc2nccs2)C1` (stereo not given), the activity change, negative = inhibition was -4.79% in experiment [1]; 1.2% in experiment [2]; -1.23% in experiment [3]; -3.13% in experiment [4]; -10.2% in experiment [5].

`O=C(Cc1cccc(Cl)c1)N1CCC2(CN[S+](=O)([O-])c3cccnc3O2)C1` (stereo not given): the activity change, negative = inhibition in experiment [1] was -2.57%; in experiment [2] it was 3.52%; in experiment [3] it was 2.83%; in experiment [4] it was -0.535%; in experiment [5] it was 1.81%.

Regarding `CC1CCC2C(C(=O)O)=CC3(O)CC(C)(C)CC123` (stereo not given), the activity change, negative = inhibition is 4.47% in experiment [1]; -1.15% in experiment [2]; 9.8% in experiment [3]; -12.5% in experiment [4]; 3.08% in experiment [5].

In the case of `CCOc1ccc(CNC(=O)c2cc3n(n2)CC(C)(C(=O)NC2CCCC2)N(CC)C3=O)cc1` (stereo not given), the activity change, negative = inhibition was 0.843% in experiment [1]; 3.62% in experiment [2]; -3.08% in experiment [3]; 3.03% in experiment [4]; 0.289% in experiment [5].

Consider `COc1ccc(Br)cc1CNC(=O)c1ccc(N2C(=O)Cn3c(cc4sccc43)C2=O)cc1`, for which the activity change, negative = inhibition in experiment [1] was -10.4%; in experiment [2], -0.485%; in experiment [3] it was -12.3%; in experiment [4] it was -17.4%; in experiment [5] it was -17.6%.

Turning to `COc1cccc(N2C(=O)c3cc4sccc4n3CC2(C)C(=O)NC2CCCCC2)c1` (stereo not given), the activity change, negative = inhibition was -3.36% in experiment [1]; -0.311% in experiment [2]; -2.63% in experiment [3]; 4% in experiment [4]; -2.7% in experiment [5].

Regarding `CC(C)c1ccc2c(c1)c(SC(C)(C)C)c(CC(C)(C)C(=O)O)n2Cc1ccc(Cl)cc1`, the activity change, negative = inhibition in experiment [1] was -26.5%; in experiment [2] it was -1.66%; in experiment [3], -32.8%; in experiment [4] it was -36.1%; in experiment [5] it was 2.38%.

Turning to `CC(C)Cn1c(=O)c2ccccc2n2c(SCC(=O)Nc3ccc(F)cc3F)nnc12`, the activity change, negative = inhibition in experiment [1] is 4.11%; in experiment [2] it was 0%; in experiment [3], 10.4%; in experiment [4], 4.51%; in experiment [5], 7%.

On to `COc1ccc(NC(=O)N2CCn3cccc3C2C(C)C)cc1OC` (stereo not given), for which the activity change, negative = inhibition in experiment [1] came out at 6.6%; in experiment [2], 0.16%; in experiment [3] it was 1.52%; in experiment [4] it was 2.88%; in experiment [5], 1.67%.

For `CCOc1ccc(CCNC(=O)c2cc3n(n2)CC(C)(C(=O)NC2CCCCCC2)N(C)C3=O)cc1` (stereo not given), the activity change, negative = inhibition in experiment [1] was 1.31%; in experiment [2], -1.49%; in experiment [3] it was -2.7%; in experiment [4] it was -3.43%; in experiment [5] it was -4.29%.

For `C[C@@H]1CN(C(=O)c2cnn(C)c2)CC[C@@]1(O)C1CCOCC1`, the activity change, negative = inhibition was 8.89% in experiment [1]; -9.5% in experiment [2]; -3.87% in experiment [3]; -14.7% in experiment [4]; -10% in experiment [5].

As to `Cc1ccccc1-n1c([C@H](C)Nc2nc(N)nc3nc[nH]c23)nc2cccc(C)c2c1=O`, the activity change, negative = inhibition in experiment [1] is -4.77%; in experiment [2], -2.95%; in experiment [3], 0.509%; in experiment [4], -21.6%; in experiment [5] it was 3.1%.

`COc1cccc(CN2C(=O)c3cc4c(OC)ccc(OC)c4n3CC2(C)C(=O)NC2CCCC2)c1` (stereo not given): the activity change, negative = inhibition was 6.27% in experiment [1]; 0.054% in experiment [2]; 10.5% in experiment [3]; 8.68% in experiment [4]; 3.16% in experiment [5].

`O=C(Cn1nc2nc(Nc3ccc(F)cc3)ccn2c1=O)Nc1ccccc1`: the activity change, negative = inhibition in experiment [1] was 7.63%; in experiment [2], -0.824%; in experiment [3] it was 15.6%; in experiment [4], -4.92%; in experiment [5] it was 2.2%.

With `COc1cccc(-c2ccc(CN3CCCC(N[S+](=O)([O-])c4c(C)noc4C)C3)cc2)c1` (stereo not given), the activity change, negative = inhibition is -3.02% in experiment [1]; -1.34% in experiment [2]; -6.38% in experiment [3]; -2.86% in experiment [4]; -7.16% in experiment [5].

Consider `C=C1CCC2C(C)(C(=O)OC)CCCC2(C)C1CCC1=CCOC1=O` (stereo not given), for which the activity change, negative = inhibition was -2% in experiment [1]; -6.55% in experiment [2]; 6.23% in experiment [3]; -22.5% in experiment [4]; -3.67% in experiment [5].

As for `COc1ccc(C(=O)N2CC[C@H](c3nc4ccccc4n3C)C2)cc1OC`, the activity change, negative = inhibition in experiment [1] was -5.22%; in experiment [2], -4.25%; in experiment [3] it was -2.85%; in experiment [4], -8.07%; in experiment [5], 5.66%.

On to `CC(/C=C/C(=O)NO)=C\[C@@H](C)C(=O)c1ccc(N(C)C)cc1`, for which the activity change, negative = inhibition in experiment [1] was 1.16%; in experiment [2], 5.55%; in experiment [3] it was 8.28%; in experiment [4], -6.97%; in experiment [5] it was 5.2%.

As for `CSc1ccc(N2C(=O)c3ccccc3CC2(C)C(=O)NCc2ccccc2)cc1` (stereo not given), the activity change, negative = inhibition in experiment [1] was -6.61%; in experiment [2], 2.67%; in experiment [3], -9.24%; in experiment [4] it was -9.69%; in experiment [5], -6.83%.

`CC(C)NC(=O)C[C@@H]1C[C@H]2O[C@H](CNCc3ccccc3C(F)(F)F)[C@@H](O)[C@H]2O1`: the activity change, negative = inhibition in experiment [1] came out at 1.57%; in experiment [2], 2.48%; in experiment [3], 2.2%; in experiment [4] it was 5.05%; in experiment [5], 11.4%.

With `O=C(CO)N1CCC(c2[nH]nc(-c3ccc(Cl)cc3)c2-c2ccncn2)CC1`, the activity change, negative = inhibition in experiment [1] was 0.739%; in experiment [2] it was 5.86%; in experiment [3], 7.42%; in experiment [4], -13.6%; in experiment [5], -2.93%.

Regarding `COc1cccc2c1OCC(C(=O)N1CCC(c3noc(C)n3)CC1)C2` (stereo not given), the activity change, negative = inhibition in experiment [1] came out at 1.1%; in experiment [2] it was 0.062%; in experiment [3], 1.56%; in experiment [4], 1.09%; in experiment [5], 2.35%.

For `CC1(C)O[C@]23C[C@H]1C[C@H](OC(=O)c1ccoc1)[C@]2(C)[C@@H](OC(=O)c1ccoc1)CCC3(C)O` (stereo not given in full), the activity change, negative = inhibition in experiment [1] is 0%; in experiment [2] it was -0.891%; in experiment [3], -2.56%; in experiment [4], -13.9%; in experiment [5], 0.87%.

Regarding `C=C1CCC2C(C)(C(=O)O)CCCC2(C)C1CCC(C)CC(=O)O` (stereo not given), the activity change, negative = inhibition is -4.18% in experiment [1]; -14% in experiment [2]; 1.72% in experiment [3]; -20% in experiment [4]; -9.54% in experiment [5].

Turning to `CN(CC(=O)N1CCc2ccccc21)S(=O)(=O)c1ccc2[nH]c3c(c2c1)CCCC3`, the activity change, negative = inhibition is 3.5% in experiment [1]; 0% in experiment [2]; 7.38% in experiment [3]; 2.98% in experiment [4]; 3.32% in experiment [5].

Take `Cc1cc(Nc2nc(N[C@@H](C)c3ccc(F)cc3)c(C#N)cc2F)n[nH]1`: the activity change, negative = inhibition in experiment [1] is -9.59% and -21.4%; in experiment [2] it was 0.15%; in experiment [3] it was -1.88% and -4%; in experiment [4] it was -52% and -38.8%; in experiment [5], -7.57% and 6.81%.

In the case of `Cc1cc(-c2cc3c(cn2)N(C)CCN(C)C3)ccn1`, the activity change, negative = inhibition in experiment [1] was -8.46%; in experiment [2], -7.71%; in experiment [3], -66.9%; in experiment [4], -12%; in experiment [5] it was -20.8%.
